Data on 31 sequences can be found in article PMC12820563, “FoxP3 forms a head-to-head dimer in vivo and stabilizes its multimerization on adjacent microsatellites”.

This is one part of the list.

The assay deals with T1, MBP-FoxP1dN (Mus musculus, UniProt P58462 326-579).
T1 sequence: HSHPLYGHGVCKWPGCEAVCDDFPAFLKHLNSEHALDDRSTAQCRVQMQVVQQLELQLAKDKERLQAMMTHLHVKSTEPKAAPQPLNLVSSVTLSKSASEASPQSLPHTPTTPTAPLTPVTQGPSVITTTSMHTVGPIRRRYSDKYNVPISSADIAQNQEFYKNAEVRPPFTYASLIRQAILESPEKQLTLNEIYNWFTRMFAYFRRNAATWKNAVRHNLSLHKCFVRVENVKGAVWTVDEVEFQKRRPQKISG
Put plainly: PD-seq (MBP pull-down with sequencing); 20 mM Tris-HCl pH 7.5, 100 mM NaCl, 1.5 mM MgCl2, 0.4 uM protein, 0.1 uM dsDNA library, 30 min, room temperature, amylose pull-down; high values mean tight binding. To be noted: protein: recombinant; tags: His6-MBP; chain copies: 2; dsDNA, one strand shown. In outline:
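Binding is reads-per-million enrichment of pull-down over input, with replicates pooled. It comes from 30 min room-temperature incubation in Tris pH 7.5 buffer with NaCl and MgCl2 of 0.4 µM His6-MBP-tagged, N-terminally truncated mouse FoxP3 or FoxP1 fragment from E. coli with 0.1 µM Klenow-filled degenerate double-stranded DNA library, followed by amylose resin capture, three washes and Illumina sequencing of the released DNA.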
For “GATGATTGTTCTCCCAGCTGATGAATTCGAGCCGTCGAGTAAACAAATTTTCCTAATCTTTCTGTTCAAGCGCCATCTAC”, the binding signal was 0.827 RPM ratio (pull-down/input). For “GATGATTGTTCTCCCAGCTGATGAATTCCGAGATTCGAGTAAACAAATTTTCCTAATCTTTCTGTTCAAGCGCCATCTAC”, the binding signal was 0.799 RPM ratio (pull-down/input).

In the case of “GATGATTGTTCTCCCAGCTGATGAATTGACGGAGTCGAGTAAACAAATTTTCCTAATCTTTCTGTTCAAGCGCCATCTAC”, the binding signal was 0.914 RPM ratio (pull-down/input). In the case of “GATGATTGTTCTCCCAGCTGATGAATTGTGCCTTTCGAGTAAACAAATTTTCCTAATCTTTCTGTTCAAGCGCCATCTAC”, the binding signal was 1.1 RPM ratio (pull-down/input). As to “GATGATTGTTCTCCCAGCTGATGAATTTTTCGAATCGAGTAAACAAATTTTCCTAATCTTTCTGTTCAAGCGCCATCTAC”, the binding signal was 0.937 RPM ratio (pull-down/input).

For the sequence “GATGATTGTTCTCCCAGCTGATGAATTAAGGTAGTCGAGTAAACAAATTTTCCTAATCTTTCTGTTCAAGCGCCATCTAC”, the binding signal was 0.878 RPM ratio (pull-down/input). As to “GATGATTGTTCTCCCAGCTGATGAATTGTCGGCATCGAGTAAACAAATTTTCCTAATCTTTCTGTTCAAGCGCCATCTAC”, the binding signal is 1.12 RPM ratio (pull-down/input). As for “GATGATTGTTCTCCCAGCTGATGAATTTATTATGTCGAGTAAACAAATTTTCCTAATCTTTCTGTTCAAGCGCCATCTAC”, the figure is 1.4 RPM ratio (pull-down/input); as for “GATGATTGTTCTCCCAGCTGATGAATTGTAGGGATCGAGTAAACAAATTTTCCTAATCTTTCTGTTCAAGCGCCATCTAC”, 0.87 RPM ratio (pull-down/input).

As to “GATGATTGTTCTCCCAGCTGATGAATTCTCTGTATCGAGTAAACAAATTTTCCTAATCTTTCTGTTCAAGCGCCATCTAC”, the binding signal was 0.938 RPM ratio (pull-down/input).

As for “GATGATTGTTCTCCCAGCTGATGAATTATCAATGTCGAGTAAACAAATTTTCCTAATCTTTCTGTTCAAGCGCCATCTAC”, the binding signal was 1.03 RPM ratio (pull-down/input). Take “GATGATTGTTCTCCCAGCTGATGAATTGTTCTCCTCGAGTAAACAAATTTTCCTAATCTTTCTGTTCAAGCGCCATCTAC”: the binding signal was 1.17 RPM ratio (pull-down/input). For the sequence “GATGATTGTTCTCCCAGCTGATGAATTAGTTTCTTCGAGTAAACAAATTTTCCTAATCTTTCTGTTCAAGCGCCATCTAC”, the binding signal was 0.994 RPM ratio (pull-down/input). Turning to “GATGATTGTTCTCCCAGCTGATGAATTGGTCGCGTCGAGTAAACAAATTTTCCTAATCTTTCTGTTCAAGCGCCATCTAC”, the binding signal is 1.03 RPM ratio (pull-down/input). “GATGATTGTTCTCCCAGCTGATGAATTGCTGAGGTCGAGTAAACAAATTTTCCTAATCTTTCTGTTCAAGCGCCATCTAC”: the binding signal was 0.892 RPM ratio (pull-down/input).

For “GATGATTGTTCTCCCAGCTGATGAATTAATGTGATCGAGTAAACAAATTTTCCTAATCTTTCTGTTCAAGCGCCATCTAC”, the binding signal is 1.17 RPM ratio (pull-down/input).

For “GATGATTGTTCTCCCAGCTGATGAATTGCTTTAATCGAGTAAACAAATTTTCCTAATCTTTCTGTTCAAGCGCCATCTAC”, the binding signal is 1.16 RPM ratio (pull-down/input). As for “GATGATTGTTCTCCCAGCTGATGAATTGTACTACTCGAGTAAACAAATTTTCCTAATCTTTCTGTTCAAGCGCCATCTAC”, the figure is 0.971 RPM ratio (pull-down/input). On to “GATGATTGTTCTCCCAGCTGATGAATTAATAGTCTCGAGTAAACAAATTTTCCTAATCTTTCTGTTCAAGCGCCATCTAC”, for which the binding signal was 0.952 RPM ratio (pull-down/input). As for “GATGATTGTTCTCCCAGCTGATGAATTGTCCGTTTCGAGTAAACAAATTTTCCTAATCTTTCTGTTCAAGCGCCATCTAC”, the binding signal was 0.981 RPM ratio (pull-down/input). Turning to “GATGATTGTTCTCCCAGCTGATGAATTGATTCTATCGAGTAAACAAATTTTCCTAATCTTTCTGTTCAAGCGCCATCTAC”, the binding signal was 1.07 RPM ratio (pull-down/input). Regarding “GATGATTGTTCTCCCAGCTGATGAATTAGGTAGCTCGAGTAAACAAATTTTCCTAATCTTTCTGTTCAAGCGCCATCTAC”, the binding signal is 0.899 RPM ratio (pull-down/input). In the case of “GATGATTGTTCTCCCAGCTGATGAATTTAACAGGTCGAGTAAACAAATTTTCCTAATCTTTCTGTTCAAGCGCCATCTAC”, the binding signal is 0.809 RPM ratio (pull-down/input).

For “GATGATTGTTCTCCCAGCTGATGAATTTGTAGTATCGAGTAAACAAATTTTCCTAATCTTTCTGTTCAAGCGCCATCTAC”, the binding signal is 1.47 RPM ratio (pull-down/input). Take “GATGATTGTTCTCCCAGCTGATGAATTAGGAAGTTCGAGTAAACAAATTTTCCTAATCTTTCTGTTCAAGCGCCATCTAC”: the binding signal is 0.873 RPM ratio (pull-down/input). As for “GATGATTGTTCTCCCAGCTGATGAATTATGCCCCTCGAGTAAACAAATTTTCCTAATCTTTCTGTTCAAGCGCCATCTAC”, the figure is 0.922 RPM ratio (pull-down/input). As for “GATGATTGTTCTCCCAGCTGATGAATTCTCCCCATCGAGTAAACAAATTTTCCTAATCTTTCTGTTCAAGCGCCATCTAC”, the figure is 0.961 RPM ratio (pull-down/input). For “GATGATTGTTCTCCCAGCTGATGAATTACATATATCGAGTAAACAAATTTTCCTAATCTTTCTGTTCAAGCGCCATCTAC”, the binding signal is 1.34 RPM ratio (pull-down/input). With “GATGATTGTTCTCCCAGCTGATGAATTTTCTTAGTCGAGTAAACAAATTTTCCTAATCTTTCTGTTCAAGCGCCATCTAC”, the binding signal is 0.92 RPM ratio (pull-down/input). “GATGATTGTTCTCCCAGCTGATGAATTTAAGTTGTCGAGTAAACAAATTTTCCTAATCTTTCTGTTCAAGCGCCATCTAC”: the binding signal is 1.36 RPM ratio (pull-down/input). For the sequence “GATGATTGTTCTCCCAGCTGATGAATTTGCGAAATCGAGTAAACAAATTTTCCTAATCTTTCTGTTCAAGCGCCATCTAC”, the binding signal was 1.2 RPM ratio (pull-down/input).
